{
  "source": "PubChem BioAssay (NCATS)",
  "note": "Some of the results follow. Further columns of the screen follow, without active or inactive calls. Most of these compounds were active or inconclusive in the main read-out, so they are no random draw. Bridge positions count the residues as written; N and C are the ends. Square brackets hold non-standard residues; d marks the D form. Peptide text beside a SMILES is read from it. * marks the point of attachment. ξ: configuration not given here. ξDab(CH2SO3H) = NC(CCNCS(=O)(=O)O)C(=O)O; Heptanoyl(6-Me) = CC(C)CCCCC(=O)*; Dab = NCC[CH](N)C(=O)O",
  "data": [
    {"assay": "qHTS Assay for Lipid Storage Modulators (AID 1519)", "conditions": "Drosophila S3 cells, BODIPY lipid droplet/cell ratio, laser cytometry; measured here: lipid channel max response; cells loaded with oleic acid", "outline": "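Cells seeded at 5,000 per well were treated with compounds over a concentration series and loaded with oleic acid (400 uM, as added). Lipid droplet fluorescence (488 nm excitation, 500-530 nm channel) was read by laser-scanning cytometry and normalized to 20 uM Triacsin C.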", "units": {"max response": "%"}, "values": [
      {"smiles": "CNCC(O)c1cccc(O)c1", "note": "(stereo not given)", "max response": 47.7},
      {"smiles": "CN(C)c1ncc2nc(-c3ccc(F)cc3)c(=O)n(CCC#N)c2n1", "max response": 30.8},
      {"smiles": "Cc1noc(C)c1-c1nc(Nc2ccc(F)cc2)c2ccccc2n1", "max response": 42.4},
      {"smiles": "COc1cc(O)c2c(=O)cc(-c3ccccc3)oc2c1", "max response": 109},
      {"smiles": "COc1ccccc1CNc1ccnc(-c2ccccc2Cl)n1", "max response": 42.1},
      {"smiles": "COc1cc(O)c2c(=O)cc(-c3ccc(OC)c(-c4c(O)cc(O)c5c(=O)cc(-c6ccc(O)cc6)oc45)c3)oc2c1", "max response": -34.6},
      {"smiles": "Cc1cnc(CNc2ccnc(-c3cccnc3)n2)cn1", "max response": 48.7},
      {"smiles": "Cc1ccccc1-c1nc(N(C)C)c2ccccc2n1", "max response": 29.1},
      {"smiles": "COC(=O)C(C)(N)Cc1ccc(O)cc1", "note": "(stereo not given)", "max response": 35.8},
      {"smiles": "O=C(c1cccc(F)c1)N1CCC[C@@]2(CCN(Cc3ccncc3)C2)C1", "max response": 15.8},
      {"smiles": "COc1cc2cc(Oc3ccc4ccc(=O)oc4c3)c(=O)oc2cc1O", "max response": 101},
      {"smiles": "CCc1ccc2c(-c3cccc(Cl)c3)nc(=O)n(CC)c2n1", "max response": 160},
      {"smiles": "c1cncc(-c2cc(-n3ccnc3)ncn2)c1", "max response": 43.8},
      {"smiles": "Cc1cnc(CNc2nc(-c3ccccc3C(F)(F)F)nc3ccccc23)cn1", "max response": 44.5},
      {"smiles": "Cc1nc2cnc(Oc3ccccc3)nc2n(Cc2cccs2)c1=O", "max response": 41.6},
      {"smiles": "COc1ccc2c(=O)cc(-c3ccccc3)oc2c1O", "max response": 159},
      {"smiles": "CN(C)c1ncc2nc(CCc3ccccc3)c(=O)n(CCc3ccccc3)c2n1", "max response": 18.5},
      {"smiles": "COc1ccc(CNc2ccnc(-c3ccccc3Cl)n2)c(OC)c1", "max response": 25.6},
      {"smiles": "O=c1cnc2cnc(Oc3ccccc3)nc2n1Cc1ccc(F)cc1", "max response": 43.9},
      {"smiles": "COc1ccccc1CCn1c(=O)c(CCc2ccccc2)nc2cncnc21", "max response": 57.8},
      {"smiles": "O=c1c(O)c(-c2cccc(O)c2)oc2ccccc12", "max response": 23.3},
      {"smiles": "Cc1cnc(CNc2nc(-c3ccccc3Cl)nc3ccccc23)cn1", "max response": 54.7},
      {"smiles": "CCC(C)C1NC(=O)C(CCNCS(=O)(=O)O)NC(=O)C(NC(=O)C(CCNCS(=O)(=O)O)NC(=O)C(NC(=O)C(CCNCS(=O)(=O)O)NC(=O)CCCCC(C)C)C(C)O)CCNC(=O)C(C(C)O)NC(=O)C(CCNCS(=O)(=O)O)NC(=O)C(CCNCS(=O)(=O)O)NC(=O)C(C(C)CC)NC1=O", "note": "(stereo not given) ({Heptanoyl(6-Me)}-[ξDab(CH2SO3H)]T[ξDab(CH2SO3H)][Dab][ξDab(CH2SO3H)]II[ξDab(CH2SO3H)][ξDab(CH2SO3H)]T; lactam 4-C; configuration not given here)", "max response": 79.2},
      {"smiles": "C[N+](C)(C)CCOC(=O)CCC(=O)OCC[N+](C)(C)C", "max response": -10.8},
      {"smiles": "COc1ccc2c(c1OC)C(=O)O[C@H]2C1c2c(cc3c(c2OC)OCO3)CCN1C", "note": "(stereo not given in full)", "max response": 131},
      {"smiles": "COCCn1c(=O)c(-c2cccc(F)c2)nc2cncnc21", "max response": 45.1},
      {"smiles": "CCOC(=O)C1=C(N)Oc2ccc(Br)cc2[C@@H]1[C@@H](C#N)C(=O)OCC", "max response": 111},
      {"smiles": "CSC(=N)N", "max response": -11.1},
      {"smiles": "Cc1nc2cnc(Oc3cccc(Cl)c3)nc2n(CCc2ccccc2)c1=O", "max response": 21},
      {"smiles": "COc1ccc2cccc(N3CCN(CCNC(=O)c4ccc(F)cc4)CC3)c2c1", "max response": 64.1},
      {"smiles": "Nc1ncnc2c1nc(Sc1ccc(Cl)cc1)n2[C@H]1O[C@@H]2COP(=O)(O)O[C@H]2[C@@H]1O", "max response": 72.1},
      {"smiles": "FC(F)(F)c1ccccc1-c1cncnc1NCc1ccccc1", "max response": 38},
      {"smiles": "COc1ccccc1N1CCN(C[C@@H]2CN3C(=O)N(C)c4ccccc4C3=N2)CC1", "max response": 107},
      {"smiles": "COc1ccc(C(=O)N2CCC[C@@]3(CCN(c4cccc(-c5ccccc5)c4)C3)C2)cc1", "max response": -60.5},
      {"smiles": "O=c1cnc2cnc(N3CCOCC3)nc2n1Cc1ccc(F)cc1", "max response": 14.4},
      {"smiles": "CN1CCc2cccc3c2[C@H]1Cc1ccc(O)c(O)c1-3", "max response": 107},
      {"smiles": "COc1ccccc1-c1cncnc1NCc1cnc(C)cn1", "max response": 39},
      {"smiles": "CN1CCN2c3ccccc3Cc3ccccc3[C@@H]2C1", "max response": 35.3},
      {"smiles": "NC1(C(=O)O)CCCCC1", "max response": -8.64},
      {"smiles": "CCNc1ncc2nc(-c3cn(C)c4ccccc34)c(=O)n(Cc3ccc(F)cc3)c2n1", "max response": 35.9}
    ]}
  ]
}
